Whole data set: some 33,000 sequences, median “E-score (-0.5 to 0.5)” near -0.016, cut for the highest 2% near 0.32. The list shows a part of the results.
These sequences were tested against T1, Stp1 (UniProt B3LFK1) (assay: PBM E-score (8-mer binding enrichment) (E-score (-0.5 to 0.5)); higher = stronger / more preferred TF binding; most listed sequences are background and not binding sites). Settings: protein concentration: 200 nM; construct: GST-full length.
T1 sequence: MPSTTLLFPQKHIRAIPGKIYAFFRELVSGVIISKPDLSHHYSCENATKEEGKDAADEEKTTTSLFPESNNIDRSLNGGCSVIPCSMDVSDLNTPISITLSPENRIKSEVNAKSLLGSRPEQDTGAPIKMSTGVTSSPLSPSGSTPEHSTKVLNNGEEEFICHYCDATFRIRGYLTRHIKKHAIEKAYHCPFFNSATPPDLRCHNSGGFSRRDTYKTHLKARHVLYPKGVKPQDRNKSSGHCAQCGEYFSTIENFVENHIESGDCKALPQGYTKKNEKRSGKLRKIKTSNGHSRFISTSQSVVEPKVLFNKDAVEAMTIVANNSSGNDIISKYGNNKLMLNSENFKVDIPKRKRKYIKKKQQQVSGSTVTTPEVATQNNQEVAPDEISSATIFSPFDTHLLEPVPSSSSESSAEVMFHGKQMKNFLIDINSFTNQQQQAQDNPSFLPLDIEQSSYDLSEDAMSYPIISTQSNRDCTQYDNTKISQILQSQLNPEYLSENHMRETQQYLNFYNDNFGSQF
Method in brief: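 Full-length yeast transcription factors or their DNA-binding domains, GST-tagged and expressed with PURExpress, were applied at about 100-200 nM to universal all-10-mer Agilent arrays. These arrays had been made double-stranded by primer extension on fresh or once-stripped slides. Detection used fluorescent anti-GST, normalisation used masliner, and E-scores for ungapped eight-base words pooled with reverse complements came from the Universal PBM Analysis Suite.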

| Sequence | PBM E-score |
| --- | --- |
| ACCGAATG | 0.0815 |
| GCAACACA | 0.128 |
| AACCATGT | 0.0492 |
| CAAGGTGC | 0.117 |
| ACTAATTC | 0.085 |
| GGTCACAA | -0.0312 |
| GTAGAGTA | 0.0935 |
| GTCCCAAC | -0.0557 |
| GACTAATC | 0.139 |
| ATCTTGGG | -0.0872 |
| AACCTGGC | -0.0591 |
| CAGTGAAG | -0.101 |
| CGAGATGA | 0.0383 |
| CCCCTGGC | -0.238 |
| ACATCAGA | 0.0147 |
| ACGGTAAT | 0.029 |
| AGTGATTC | 0.116 |
| ATCCATAA | 0.242 |
| AAAGGCCC | 0.0271 |
| AGCATTCA | -0.041 |
| GATGCATC | 0.0692 |
| AGTTGTCG | -0.00677 |
| ACTATGCT | 0.143 |
| GAAATGGA | -0.11 |
| CAACACTA | 0.0348 |

| Sequence | PBM E-score |
| --- | --- |
| AACACATT | 0.123 |
| CATGGTCG | -0.0379 |
| GGCAACCC | -0.0607 |
| CCTAAGAC | -0.249 |
| AGGCGGCA | 0.369 |
| AACTCGGG | -0.155 |
| ACCCGCGA | 0.106 |
| AGATGTCG | -0.12 |
| ACTTGGAT | -0.0149 |
| GGATAGGA | -0.202 |
| TGAGTAAA | -0.0202 |
| GAGCAGAA | -0.0386 |
| CGCGCCTA | 0.313 |
| CGTGGAGC | -0.0597 |
| CAGGAATG | -0.0261 |
| ATCCGTAA | -0.09 |
| ACAAGGCG | 0.38 |
| TCGCGCAA | 0.14 |
| TTAAATAA | 0.114 |
| GAGAAAAC | 0.0641 |
| AGAGTAGC | -0.197 |
| AAATTACC | -0.0227 |
| TGGTAACA | 0.0718 |
| GAAAACGA | 0.0433 |
| CTCAGAGC | -0.211 |

| Sequence | PBM E-score |
| --- | --- |
| AAAAAAAT | 0.0656 |
| GTATTATA | 0.309 |
| AGACTATG | -0.109 |
| ATAACCGG | -0.144 |
| ATGAGTTC | -0.148 |
| TATCAGAA | 0.22 |
| CTGCAGTC | -0.173 |
| TCCGACCA | -0.164 |
| AATATAGT | 0.0424 |
| ATATGAAA | 0.17 |
| ATAATTGG | -0.0243 |
| CATTAATG | -0.00015 |
| AGAGGCTC | 0.0034 |
| ATTTGTTA | 0.159 |
| GAGATTAA | 0.0466 |
| CCACAGTA | 0.144 |
| ACGGGCAG | 0.0634 |
| CAATGCAC | -0.00094 |
| CGAGCGGA | 0.114 |
| CAGTAATA | 0.186 |
| CTTTTCAC | 0.0444 |
| CTGATTAA | 0.0766 |
| CTTGGTAC | 0.0413 |
| AATATGCC | 0.133 |
| GGGACTAC | -0.275 |

| Sequence | PBM E-score |
| --- | --- |
| GAGTTAAA | 0.115 |
| GGAAGGAC | -0.263 |
| GACGCAGA | 0.0186 |
| CATAGATG | -0.0954 |
| GGAGAGCA | -0.263 |
| GAGGGCGC | 0.189 |
| ATCTTATC | 0.0792 |
| CGTCCAAG | 0.0854 |
| TGTCTAAA | 0.217 |
| ACCCACAC | 0.0842 |
| ATCCCAAG | -0.00544 |
| GGGCGCTA | 0.0956 |
| AAATTGCT | -0.00925 |
| CGCAGCAA | -0.0814 |
| AAGTACAG | -0.119 |
| CCTGGGTC | -0.258 |
| AGTTGATG | -0.0271 |
| ATCTGAAG | -0.04 |
| AATCGTTC | 0.0914 |
| GCTATCGA | 0.0387 |
| AGGGCACG | 0.302 |
| AAAGGGTC | -0.0953 |
| TACCGTAA | 0.0576 |
| GCGCGGCA | 0.483 |
| GTAGTCCA | -0.156 |

| Sequence | PBM E-score |
| --- | --- |
| CTCCTCAC | -0.154 |
| CTCAATAA | 0.0621 |
| AGTCCAAT | -0.0818 |
| TCAACACA | 0.15 |
| CTAGCCCC | -0.27 |
| ATCAGAGC | 0.0942 |
| ATACGTTA | 0.0463 |
| AACGATAG | -0.00989 |
| GCACTAGA | -0.056 |
| CCTCGGAA | -0.0641 |
| GCTTAGCA | -0.0219 |
| ACTCATAG | -0.0564 |
| CAAGCGAC | -0.128 |
| CCTCGTGC | 0.131 |
| GATGAACA | -0.00822 |
| CTTGTTTC | 0.0834 |
| ATCTTCAT | -0.0473 |
| CATCTTTA | 0.223 |
| AAAATTAT | 0.208 |
| ACATGGAT | -0.0555 |
| AACTGCGT | 0.00114 |
| ATAGTCCC | -0.271 |
| AACGACAC | -0.0363 |
| ATCCGGAA | -0.0288 |
| ACCCTCTA | -0.261 |

| Sequence | PBM E-score |
| --- | --- |
| CGTTGTGA | 0.173 |
| GTAGGAAC | 0.0214 |
| GAATACCA | 0.0128 |
| AAAGGGGC | -0.108 |
| AAGCCGGG | -0.211 |
| TCCCTACA | -0.129 |
| CTGCCTCC | -0.063 |
| CTCAGGGC | 0.00893 |
| GAAACGCA | 0.145 |
| TTAACCAA | 0.0665 |
| CCTCTCAC | -0.0778 |
| GACTATGA | -0.251 |
| CGGCATAA | 0.358 |
| CCCAAGTC | -0.207 |
| CACAGAAA | -0.00471 |
| CTTGGTTC | 0.197 |
| AGTTCGTA | 0.102 |
| TGCGTCCA | -0.0565 |
| ACGTCGTC | -0.0849 |
| CACAATAC | -0.13 |
| AGCCAAAA | -0.0215 |
| ACCTTGGC | -0.262 |
| CAAACATG | -0.00926 |
| CGAGTGGC | 0.167 |
| ACATATCA | 0.186 |

| Sequence | PBM E-score |
| --- | --- |
| CTGGAAAG | -0.15 |
| CTATGGAA | 0.00264 |
| CTTCCGCA | -0.107 |
| GAATCCTA | 0.0481 |
| ATGCATCC | -0.231 |
| CTTGGTGC | -0.0166 |
| ATGCATAA | 0.0467 |
| CCTGCACA | -0.217 |
| CCCGGTAC | -0.346 |
| ACCCTAAG | -0.186 |
| CATTCATA | 0.186 |
| AACGGCAA | 0.432 |
| CGCGTAAA | 0.213 |
| GCGACCAA | 0.0541 |
| ATGTGTTA | 0.148 |
| CTCCCCAG | -0.314 |
| TAGGTGAA | -0.103 |
| AAAGCCTA | 0.038 |
| TCTCTTCA | 0.0652 |
| AGTCTCGC | -0.257 |
| CTAGGGCA | -0.0923 |
| GGGCCGTA | 0.369 |
